# Data: article PMC7819943, “Rice protein-binding microarrays: a tool to detect cis-acting elements near promoter regions in rice”
# The other results are listed elsewhere or left out.
# Target: T1, OsWOX13 (Oryza sativa, UniProt Q5QMM3 1-267)
# T1 sequence: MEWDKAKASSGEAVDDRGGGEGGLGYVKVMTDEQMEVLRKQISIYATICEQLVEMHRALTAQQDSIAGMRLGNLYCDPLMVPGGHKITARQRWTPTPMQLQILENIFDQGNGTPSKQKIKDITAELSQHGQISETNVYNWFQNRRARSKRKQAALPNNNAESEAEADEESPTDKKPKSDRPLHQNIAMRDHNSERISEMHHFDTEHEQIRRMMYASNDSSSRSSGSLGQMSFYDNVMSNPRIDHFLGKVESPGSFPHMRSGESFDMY
# Assay: protein-binding microarray (RPBM); PBS, 2% BSA, 51.3 ng/ul salmon testes DNA, 50 uM zinc acetate, 200 nM TF, 25 C, 1 h; high values mean tight binding
# Settings: protein: recombinant; tags: N-terminal polyhistidine and DsRed monomer fusion (pET32a); label: CyDye5-dUTP incorporated in the synthesized complementary strand; 3' TTTTT single-stranded linker to array surface; dsDNA, one strand shown
# Outline: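 For the binding signal, per-feature fluorescence intensity was read in arbitrary units on an Axon 4000B scanner. Before scanning, a 2% BSA-blocked custom Agilent array made double-stranded with Cy5-dUTP was washed after 1 h at 25 °C with 200 nM protein and 50 µM zinc acetate. The proteins were Ni–NTA-purified transcription factors with N-terminal polyhistidine and DsRed fusions, expressed in E. coli BL21-CodonPlus.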
row,Sequence,binding signal
1,TTTTAATCAATGAGATTATTCCAAGTAGCCAAGTAGGTAACGGAGTCACCTAGTGCAG,4720 fluorescence intensity (a.u.)
2,ATAATTAATATATGTTGATACATGTATAGACTCTTCTAATCGGAGTCACCTAGTGCAG,10700 fluorescence intensity (a.u.)
3,CACTAATTAATCTATTGCTAGTACAAGCTAGTACTTGACTCGGAGTCACCTAGTGCAG,23400 fluorescence intensity (a.u.)
4,ACTCTTAGACTGTCAATTGGTCGACATCTACGCTTATCATCGGAGTCACCTAGTGCAG,9430 fluorescence intensity (a.u.)
5,TCCAACGTTTTGGTTTCAATCAGGAGATGACCCGTCAGGACGGAGTCACCTAGTGCAG,5530 fluorescence intensity (a.u.)
6,ACCCCAATCACTGACGCACCGGGCCCACGTAGCTCGACCCCGGAGTCACCTAGTGCAG,20600 fluorescence intensity (a.u.)
7,TATTTTATAGTTGATTAAACTGATGTATTGTTGTTGTCACCGGAGTCACCTAGTGCAG,6240 fluorescence intensity (a.u.)
8,AGGGAGGCTATTCAATCAGGAGCAAGTATTGAGGGAGGCACGGAGTCACCTAGTGCAG,4200 fluorescence intensity (a.u.)
9,AAAATTGTGCATTAATTAGTATAGTCATTTGTCCTCTCAACGGAGTCACCTAGTGCAG,32700 fluorescence intensity (a.u.)
10,GCAATATATAATTTGGTCTTGAATGGCACATGATTCTTCTCGGAGTCACCTAGTGCAG,5780 fluorescence intensity (a.u.)
11,TTCCTGATGTCAATTAACTGCAAAACTGTAGCGCAGAGCACGGAGTCACCTAGTGCAG,39200 fluorescence intensity (a.u.)
12,AATAATTAAATTTGATATAATAAATTAATATGTGATATGTCGGAGTCACCTAGTGCAG,35700 fluorescence intensity (a.u.)
13,CCAAAATTTGGCTTTAACTAAAACATATCCTAGCACCACCCGGAGTCACCTAGTGCAG,6420 fluorescence intensity (a.u.)
14,CTTGAGATAACAGTTATATAACTGTTTGCCAATTTCAAATCGGAGTCACCTAGTGCAG,4100 fluorescence intensity (a.u.)
15,CACCGTCCATAATTTATTTTAAATTCGCATTTAATTCGCTCGGAGTCACCTAGTGCAG,12800 fluorescence intensity (a.u.)
16,ATTGTAACTGACAAACACTTTATCATTGTTTTCAGCCAAACGGAGTCACCTAGTGCAG,7490 fluorescence intensity (a.u.)
17,TATAGTGCAGATTTTGAAATTGATGAGTGCACGTTTGGGCCGGAGTCACCTAGTGCAG,6560 fluorescence intensity (a.u.)
18,TTTGAGTGATTTTGTGCATTTGAAACCATGGTGCCCGGGCCGGAGTCACCTAGTGCAG,19800 fluorescence intensity (a.u.)
19,AGCTAATGAGCTAAACGCCCAGTCATTCAACACCGACCATCGGAGTCACCTAGTGCAG,3670 fluorescence intensity (a.u.)
20,AGATAATCATTGGATGCATGTCGGCAACCAACCATGCCTACGGAGTCACCTAGTGCAG,7050 fluorescence intensity (a.u.)
21,TTTCAAATCTCAAATTGAAAGTTTTCAAAATTTTCAAATCCGGAGTCACCTAGTGCAG,3760 fluorescence intensity (a.u.)

row,Sequence,binding signal
1,CCTATTCATAATTGATCATGTTAAAAGTTGTTTTCTGCCACGGAGTCACCTAGTGCAG,32300 fluorescence intensity (a.u.)
2,ACATATGCTAATGACGGATTAATTGGGCTCAAAAGATTCGCGGAGTCACCTAGTGCAG,9450 fluorescence intensity (a.u.)
3,ACAATAATCAACTTAATGATATGGAGATAGAATATTCCCACGGAGTCACCTAGTGCAG,13700 fluorescence intensity (a.u.)
4,GGAAATTGGCCTGAAACATAAAAGTCTTGAACCGTTTGAGCGGAGTCACCTAGTGCAG,5900 fluorescence intensity (a.u.)
5,CTTAATGTTTTAATCTATCTATATTAGTCCTTTAAGTTTTCGGAGTCACCTAGTGCAG,3890 fluorescence intensity (a.u.)
6,CTATGATTTGACAATGTATTTGCTACAGAAAACACATGCTCGGAGTCACCTAGTGCAG,42100 fluorescence intensity (a.u.)
7,GCTGCTACTGAGCAGATTGATTTGTTTCTGAATCTAGGAACGGAGTCACCTAGTGCAG,5670 fluorescence intensity (a.u.)
8,AGTAATGATTTCTTCTTTTAAGATGCTCTTTGCCATGCTACGGAGTCACCTAGTGCAG,11100 fluorescence intensity (a.u.)
9,TTGATAGATCAGCCATCGTCGCCGGGCCGAAAGTTAGCCGCGGAGTCACCTAGTGCAG,4030 fluorescence intensity (a.u.)
10,CACGTAATTTCTTTGCATGCTTGCAAGCGACCAAGGAGGGCGGAGTCACCTAGTGCAG,4810 fluorescence intensity (a.u.)
11,TCTTGATTTGTGGGCATTTTGCAGGGAATGTTCCATTTGCCGGAGTCACCTAGTGCAG,24700 fluorescence intensity (a.u.)
12,ACTTTTGGTTTGATTGAATATGGTATCCAGCAAACAAGCTCGGAGTCACCTAGTGCAG,39600 fluorescence intensity (a.u.)
13,ATACCATCACCGTTAAAATTCCGTCTATTCTACGCTGTTACGGAGTCACCTAGTGCAG,5490 fluorescence intensity (a.u.)
14,AATATAGTTGATTGGTCATCAATGAAGCCAAACGTATAATCGGAGTCACCTAGTGCAG,30500 fluorescence intensity (a.u.)
15,AAAACAAATTTGCACGATCACTCAAGTAATACTTTATCATCGGAGTCACCTAGTGCAG,11500 fluorescence intensity (a.u.)
16,AACCCTAGATTGATTTTGCGTGTGCTGCGTGAAGACGGCACGGAGTCACCTAGTGCAG,41400 fluorescence intensity (a.u.)
17,TATGGTGGTAATTGATGAAGCTGCTCAGGCTAGTGAAGTACGGAGTCACCTAGTGCAG,35100 fluorescence intensity (a.u.)
18,CTAATAAATTTTAGCTTAAAATATAACTTTTATAAAAGAGCGGAGTCACCTAGTGCAG,3160 fluorescence intensity (a.u.)
19,AATGATTTGTATTATGGTTGGAGTTTCTGCTGCTACTGTCCGGAGTCACCTAGTGCAG,40300 fluorescence intensity (a.u.)
20,TCTAAATGATTGTTATTTTCTTTCCTATTGTAAAGTTCAACGGAGTCACCTAGTGCAG,18900 fluorescence intensity (a.u.)
21,TGTCACAGGTAAATCACTGCAATTAGCGAGTCATGGCTCACGGAGTCACCTAGTGCAG,8530 fluorescence intensity (a.u.)
